In all, about 140,000 compounds went through this assay and about 240 (0.17%) were called active. Inconclusive results, whose numbers are uncertain, are shown with a selection of clear calls. Calls follow the shape of the dose curve; as a rule, active = well fitted inhibition curve with a large enough effect; inconclusive = small, poorly fitted or top-dose-only effect; inactive = no such curve, though single readings can be large or run the other way. Potencies of inconclusive entries are doubtful fits and often do not repeat.
assay: Primary qHTS assay for inhibitors of alpha-synuclein gene (SNCA) expression; conditions: HEK-293 SNCA-luciferase knock-in, luminescence, 24 h; series mostly up to 57.2 µM; also: nearly all actives have a fitted effect of over 45% in size
Potency is read from the fitted curve at half-maximal effect; tags tell the direction and shape of the fitted curve.

Potency, inconclusive:
Cc1cccc(-c2noc([C@@H]3Cc4nc[nH]c4CN3Cc3cccc(C#N)c3)n2)c1 2.82 µM [inhibitor, full curve, poor fit]
CC(=O)Nc1ccc(NS(=O)(=O)c2ccc3[nH]c4c(c3c2)CCCCC4)cc1 2.24 µM [inhibitor, full curve]
O=S(=O)(c1cccs1)N1CCC(c2nc(CCOc3ccc(F)cc3)no2)C1 (stereo unspecified) 17.8 µM [inhibitor, single point]
COc1ccc(Cl)cc1-n1nc(C2CC2)nc1C(C)Cn1cncn1 (stereo unspecified) 44.7 µM [inhibitor, single point]
COC(=O)c1ccc(Cn2c(SCC(=O)NCc3ccccc3)nc3ccccc32)cc1 2.82 µM [inhibitor, full curve]
CC1(CNc2ccccc2)COc2ccc(C(=O)N3CC(O)C3)cc2N1 (stereo unspecified) 12.6 µM [inhibitor, single point]
O=C1CCCN1CCCN1C(=O)[C@@H]2C[C@@H](O)CN2C2(CN(Cc3cnc4ccccc4c3)C2)C1=O 2.82 µM [inhibitor, single point]
CCOC(=O)c1cnc2ccc(C(=O)OC)cc2c1Nc1ccc(N2CCOCC2)cc1 25.1 µM [inhibitor, single point]
CC(=O)NC1CC2(CCN(C(C)=O)CC2)Oc2ccccc21 (stereo unspecified) 39.8 µM [inhibitor, partial curve, poor fit]
COc1ccc(OC)c(NC(=O)Cc2c(C)n(C(=O)c3ccc(Cl)cc3)c3ccc(OC)cc23)c1 39.8 µM [inhibitor, single point]
O=C(c1ccoc1)N1CCC(c2noc(COc3ccc(F)cc3)n2)CC1 11.2 µM [inhibitor, partial curve, poor fit]
CC(C)CCNC(=O)C1CCN(S(=O)(=O)c2cccc3nsnc23)CC1 3.55 µM [inhibitor, single point]
Cc1ccccc1OCc1ccc(-c2nc(C#N)c(N3CCN(c4ccccc4)CC3)o2)o1 7.08 µM [inhibitor, single point]
CC(=O)N[C@@H]1CN(C(=O)c2[nH]c3c(C)ccc(C)c3c2C)C[C@H]1C(C)C 11.2 µM [inhibitor, partial curve]
Cc1cc(C)cc(NC(=O)CCC(=O)N2CCSc3ccccc32)c1 39.8 µM [inhibitor, single point]
Cc1cc(Nc2nc(N[C@@H](C)c3ncc(F)cn3)ncc2Cl)n[nH]1 24.1 µM [inhibitor, partial curve, poor fit]
COc1cc([C@@H](CC(=O)O)c2ccc(C)c(CN3C[C@@H](C)Oc4ccccc4S3(=O)=O)c2)cc2nnn(C)c12 42.8 µM [inhibitor, single point]
COCc1cc(N2CCc3onc(-c4cccc5ccccc45)c3C2)ncn1 39.8 µM [inhibitor, single point]
NS(=O)(=O)C#Cc1ccccc1 39.8 µM [inhibitor, single point]
Cc1ccc(NC(=O)C2CCN(c3nnc(C)c4c(C)n(-c5ccccc5)nc34)CC2)cc1Cl 3.55 µM [inhibitor, single point]
CCNC(=O)Cn1nc(C)n2c(cc3c(OC)cccc32)c1=O 7.08 µM [inhibitor, single point]
C[S+](=O)([O-])c1ccc(-c2nc(C(=O)N3CCN(c4ncccn4)CC3)n3ccncc23)cc1 22.4 µM [inhibitor, single point]
Cc1nc(-c2cn(C3CCCN(C(=O)C(C)Oc4ccc(Cl)cc4)C3)nn2)no1 (stereo unspecified) 39.8 µM [inhibitor, single point]
Cc1cc(=O)n(CC(=O)Nc2ccc(F)c(Cl)c2)c(N(C)Cc2ccccc2)n1 17.8 µM [inhibitor, single point]
CCN(CC)CCCNC(=O)c1ccc2c(Cl)c3c(nc2c1)CCCC3 39.8 µM [inhibitor, single point]
CCOC(=O)c1c(Oc2ccc(C(C)=O)cc2)nnc(-c2ccccc2)c1-c1ccccc1 22.4 µM [inhibitor, single point]
Clc1ccc(-c2cnc([C@@H]3COCCN3Cc3ccccc3)[nH]2)cc1 44.7 µM [inhibitor, single point]
CSc1ccccc1-c1ccc(N2CCN(C)CC2)nn1 22.4 µM [inhibitor, partial curve, poor fit]
COc1ccc(C(=O)Nc2nc3c(s2)C[C@@H]2[C@](C)(CO)[C@H](O)CC[C@@]2(C)[C@@H]3CC(=O)N(C)Cc2ccccc2)cc1 3.55 µM [inhibitor, full curve, poor fit]

Potency, inactive:
COc1ccc(CN2CCC3(CC(Cc4ccccc4)=NO3)C2)cc1 (stereo unspecified)
CCCC(CCC)C(=O)Nc1cccc(-c2nc3cccnc3s2)c1
O=C(N[C@H](Cc1ccccn1)C1CC(O)C1)c1n[nH]c2c1CCCC2 (stereo partly specified)
COc1cccc([S+](=O)([O-])N2CCN(C(=O)c3nc4cccnc4n(-c4ccccc4OC)c3=O)CC2)c1
CC(=O)NC1(C)CCN(Cc2ccc(-c3cccc(F)c3)cc2)C1 (stereo unspecified)
COc1ccc(CN(C)Cc2ncccc2C(=O)O)cc1
CC1CN(c2ccc(Cl)cc2)C(=O)CN1C(=O)CCn1cccc1 (stereo unspecified)
Cc1cc(C)c(C#N)c(N2CCC3(CCC(=O)N(CC(C)O)C3)CC2)n1 (stereo unspecified)
CCC(C)NC(=O)Cc1csc2nc(C)c(-c3cc(C)n(-c4cc(Cl)ccc4C)n3)c(=O)n12 (stereo unspecified)
Cc1ccc(-c2nnc3ccc(NC4CCCCC4)nn23)nc1
CC(C)C(=O)NC1CCN(C(=O)c2ccc(-c3cccs3)cc2)CC1
COc1ccc(-c2[nH]nc3ncc(-c4ccc([S+](C)(=O)[O-])cc4)nc23)c(C)c1

From PubChem BioAssay AID1671194 (National Center for Advancing Translational Sciences (NCATS), 2021)
